Results as given in paper PMC4336329 (PLoS ONE, 2015).
The whole screen tested about 310,000 compounds, of which about 14,000 (4.5%) showed an effect of 50% or more. Effects have a minus sign here. The list shows a part of the results.

molecular target: human ether-à-go-go-related gene (hERG) potassium channel (human, UniProt Q12809); assay: primary screen, population patch clamp on CHO cells stably expressing hERG
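Also: peak tail current of the secondary pulse compared with the same well before compound.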

Chain of human ether-à-go-go-related gene (hERG) potassium channel (Q12809 whole entry, looked up): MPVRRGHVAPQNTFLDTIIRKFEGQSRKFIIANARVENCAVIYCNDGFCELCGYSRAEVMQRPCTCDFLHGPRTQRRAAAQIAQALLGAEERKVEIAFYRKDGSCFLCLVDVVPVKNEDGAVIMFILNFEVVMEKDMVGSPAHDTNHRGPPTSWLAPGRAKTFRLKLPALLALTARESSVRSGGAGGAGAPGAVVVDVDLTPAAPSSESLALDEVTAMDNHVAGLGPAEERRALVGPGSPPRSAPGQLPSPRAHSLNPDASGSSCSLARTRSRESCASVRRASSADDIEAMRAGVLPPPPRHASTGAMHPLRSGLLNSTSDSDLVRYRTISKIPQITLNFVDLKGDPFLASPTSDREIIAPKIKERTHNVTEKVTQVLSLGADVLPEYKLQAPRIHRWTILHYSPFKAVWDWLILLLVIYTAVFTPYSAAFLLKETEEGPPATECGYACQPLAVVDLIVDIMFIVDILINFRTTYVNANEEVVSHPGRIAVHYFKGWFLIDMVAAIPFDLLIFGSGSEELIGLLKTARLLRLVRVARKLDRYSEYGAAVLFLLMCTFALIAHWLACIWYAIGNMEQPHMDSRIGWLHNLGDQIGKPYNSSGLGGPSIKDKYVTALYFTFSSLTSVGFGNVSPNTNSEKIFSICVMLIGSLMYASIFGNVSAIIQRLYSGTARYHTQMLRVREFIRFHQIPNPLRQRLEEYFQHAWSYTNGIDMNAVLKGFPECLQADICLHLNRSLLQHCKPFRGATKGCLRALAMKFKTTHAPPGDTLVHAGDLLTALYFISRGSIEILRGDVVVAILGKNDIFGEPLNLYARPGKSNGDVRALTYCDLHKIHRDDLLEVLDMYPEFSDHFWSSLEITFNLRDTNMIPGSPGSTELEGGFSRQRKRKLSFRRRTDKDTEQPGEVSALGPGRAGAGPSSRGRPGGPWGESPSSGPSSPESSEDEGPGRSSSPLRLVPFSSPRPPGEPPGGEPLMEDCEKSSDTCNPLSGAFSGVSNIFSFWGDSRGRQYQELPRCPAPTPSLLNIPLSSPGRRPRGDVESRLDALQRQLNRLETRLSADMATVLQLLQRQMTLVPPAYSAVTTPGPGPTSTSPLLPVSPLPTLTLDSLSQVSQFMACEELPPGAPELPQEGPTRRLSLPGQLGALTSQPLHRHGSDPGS

| SMILES | hERG current change (%, negative = inhibition) at 10uM [%] |
| --- | --- |
| CCN(CC)CCNC(=O)c1c(C)oc2cc(Br)c(OC)cc12 | -32.1 |
| CC(C)N1CCN(Cc2ccc(C#CC(C)(C)O)s2)CC1CCO (stereo not shown) | -13 |
| CCC(C)[C@H](NC(=O)OC(C)(C)C)c1nnc(SCc2c(C)[nH]c(=O)[nH]c2=O)o1 (stereo partly shown) | 0.934 |
| CCc1nc(N)nc2c1C(=O)CC(C)(C)C2 | 6.86 |
| O=C(Nc1ccccc1Cc1ccccc1)C1CC(=O)N(c2ccc3c(c2)OCCO3)C1 (stereo not shown) | 14.1 |
| COc1cc(OC)c2c(-c3ccccc3)cc(=O)oc2c1 | 15.1 |
| CCN1CCC(=NNC(=O)c2ccc(C)c([N+](=O)[O-])c2)CC1 | 7.8 |
| CCC1(C)NC(=O)N(/N=C/c2ccc(C)s2)C1=O (stereo not shown) | 24.9 |
| Cc1ccccc1C(=O)OC1CCCN(C)C1.Cl (stereo not shown) | 15.2 |
| Cc1ccc(N(CC(=O)NC2CCCC2)C(=O)CCC(=O)Nc2nccs2)c(C)c1 | 3.95 |
| Cc1cc(OC(=O)c2cc(F)c(F)cc2Cl)nc(C)n1 | 32.7 |
| Cc1cc2cc(NC(=O)c3ccco3)ccc2[nH]1 | -11.8 |
| Cc1nc(CC(C)C)cc(C(=O)N2CCCC(Nc3ccc(C)c(C)c3)C2)n1 (stereo not shown) | 6.89 |
| O=C(Cc1ccc(S(=O)(=O)N2CCCCC2)cc1)NCc1ccc(Cl)cc1 | -45.8 |
| CCN(C(=O)Nc1cccc(Cl)c1)c1ccccc1 | 1.43 |
| O=C(CCC1CCCN(C(=O)c2ccco2)C1)NCc1ccccc1F (stereo not shown) | 3.58 |
| CN1C(=O)S/C(=C/c2ccccc2OCc2ccc(C(=O)O)cc2)C1=O | 10 |
| COc1ccc(N2CCN(C(=O)COC(=O)CNC(=O)c3ccccc3)CC2)cc1 | 1.95 |
| CCc1cc(=O)oc2c3c(cc(OCC(=O)N[C@H](C(=O)O)[C@H](C)CC)c12)OC(C)(C)CC3 | 23.8 |
| CCOC(=O)c1c(-c2ccccc2)csc1NC(=O)/C(C#N)=C/c1ccc(OC)c(OC)c1 | -13.7 |
| Cc1ccc(S(=O)(=O)N(C)Cc2ccc(-c3nnco3)cc2)cc1 | 7.53 |
| COc1cc(CN(C)Cc2cc(=O)n3ccsc3n2)ccc1OC(F)F | -28.1 |
| Cc1ccc(NC(=O)COC(=O)CCc2ccc(S(=O)(=O)N3CCOCC3)cc2)c(C)c1 | -9.5 |
| O=C(Cn1nc(C(F)F)cc1C(F)F)NNC(=S)Nc1ccc(F)cc1 | 17.4 |
| CCOc1cc(C(=S)N2CCN(C)CC2)ccc1OCC(=O)N1CCCC1 | 16 |
